# According to the supplement of paper PMC2702839:
# Structures can show the parent of a compound that is named as a salt. This is one part of the list.
# Tested on: Schistosoma mansoni schistosomula
# Experiment: phenotypic hit in primary schistosomula screen (any phenotype vs DMSO control) (binary (1 = hit, 0 = no phenotype)); higher = active (phenotype induced)
# Conditions: 1 µM; time (d): 7
row,Structure (SMILES),phenotypic hit
1,CC(=O)O[C@@H]1C[C@H]2C(C)(C)C(=O)C=C[C@]2(C)[C@H]2CC[C@]3(C)C(=CC(=O)O[C@H]3c3ccoc3)[C@@]21C [deoxygedunin],inactive: 0
2,N[C@@H]1C[C@H]1c1ccccc1.N[C@H]1C[C@@H]1c1ccccc1 [tranylcypromine sulfate],inactive: 0
3,C[N+]1(C)CCCC(OC(=O)C(O)(c2ccccc2)c2ccccc2)C1 (stereo not drawn) [mepenzolate bromide],inactive: 0
4,COc1cc(OC)c(OC)cc1C=O [asarylaldehyde],inactive: 0
5,CCOC(=O)NC1=C(N2CC2)C(=O)C(NC(=O)OCC)=C(N2CC2)C1=O [diaziquone],inactive: 0
6,COc1cc2c(cc1O)C[C@H]1c3c(cc(O)c(OC)c3-2)CCN1C [boldine],inactive: 0
7,C[C@H]1CC[C@]2(NC1)O[C@H]1C[C@H]3[C@@H]4CC[C@H]5C[C@@H](O[C@@H]6O[C@H](CO)[C@H](O[C@@H]7O[C@H](CO)[C@@H](O)[C@H](O[C@@H]8OC[C@@H](O)[C@H](O)[C@H]8O)[C@H]7O[C@@H]7O[C@H](CO)[C@@H](O)[C@H](O)[C@H]7O)[C@H](O)[C@H]6O)CC[C@]5(C)[C@H]4CC[C@]3(C)[C@H]1[C@@H]2C [tomatine],active: 1
8,CC1(C)C(=O)C=C[C@@]2(C)C1=C(O)C(=O)[C@]1(C)[C@@H]2CC[C@@]2(C)[C@H](c3ccoc3)C[C@H]3O[C@]321 [cedrelone],inactive: 0
9,O=C1CCO1 [beta-propiolactone],inactive: 0
10,Cc1c(O)c(O)cc2c1CC=C1[C@@]2(C)CC[C@@]2(C)[C@@H]3C[C@](C)(C(=O)O)CC[C@]3(C)CC[C@]12C [dihydrocelastrol],inactive: 0
11,O=C1C(Cl)=C(Cl)C(=O)C(Cl)=C1Cl [chloranil],inactive: 0
12,C[C@@H]1CC[C@]2(NC1)O[C@H]1C[C@H]3[C@@H]4CC=C5C[C@@H](O)CC[C@]5(C)[C@H]4CC[C@]3(C)[C@H]1[C@@H]2C [solasodine],inactive: 0
13,COc1ccc(OC)c(C(O)C(C)N)c1 (stereo not drawn) [Methoxamine hydrochloride],inactive: 0
14,CCC(=O)O[C@H]1CC[C@H]2[C@@H]3CCC4=CC(=O)CC[C@]4(C)[C@H]3CC[C@]12C [testosterone propionate],inactive: 0
15,CNC(=O)N(C)c1nnc(C(C)(C)C)s1 [tebuthiuron],inactive: 0
16,CC[S+]([O-])CCSP(=O)(OC)OC (stereo not drawn) [oxdemetonmethyl],inactive: 0
17,CCOP(=S)(OCC)Oc1nc(Cl)c(Cl)cc1Cl [chlorpyrifos],inactive: 0
18,CCCCCCCCCCCCCCCC[n+]1ccccc1 [cetylpyridinium chloride],active: 1
19,C=CCC1(C(C)CCC)C(=O)NC(=S)NC1=O (stereo not drawn) [thiamylal sodium],inactive: 0
20,c1ccc2c3c([nH]c2c1)CNCC3 [noreleagnine],inactive: 0
21,c1ccc(/N=N/c2ccccc2)cc1 [azobenzene],inactive: 0
22,CC(=O)O[C@@H]1CC[C@@]2(C)[C@@H](CC[C@@H]3[C@@H]2CC[C@]2(C)C(=O)CC[C@@H]32)C1 [androsterone acetate],inactive: 0
23,CC(N)C(O)c1ccc(O)c(O)c1 (stereo not drawn) [nordefrin  hydrochloride],inactive: 0

row,Structure (SMILES),phenotypic hit
1,CC(=O)NC1CCSC1=O (stereo not drawn) [citiolone],inactive: 0
2,CNC(=O)Oc1ccccc1OC(C)C [propoxur],inactive: 0
3,COc1cc([C@@H]2c3cc4c(cc3[C@H](OC(C)=O)[C@H]3COC(=O)[C@@H]23)OCO4)cc(OC)c1OC [picropodophyllin acetate],inactive: 0
4,c1ccc2c(c1)sc1ccccc12 [dibenzothiophene],inactive: 0
5,O=P1(N(CCCl)CCCl)NCCCO1 (stereo not drawn) [cyclophosphamide hydrate],inactive: 0
6,C=C1C2CC[C@@]3(C)[C@H](c4ccoc4)OC(=O)C[C@]13O[C@H]1CC(=O)C(C)(C)[C@H](C(OC(C)=O)C(=O)OC)[C@@]21C (stereo partly drawn) [6-acetoxyangolensic acid methyl ester],inactive: 0
7,CC(C)[C@]12O[C@H]1[C@@H]1O[C@@]13[C@@]1(C)CCC4=C(COC4=O)[C@@H]1C[C@@H]1O[C@@]13C2=O [triptonide],active: 1
8,CCOP(=S)(OCC)Oc1ccc2c(C)c(Cl)c(=O)oc2c1 [coumophos],inactive: 0
9,COc1ccc(C(c2ccc(OC)cc2)C(Cl)(Cl)Cl)cc1 [methoxychlor],inactive: 0
10,"COC(=O)NC(=S)Nc1ccccc1NC(=S)NC(=O)OC [dimethyl 4,4-o-phenylene-bis (3-thiophanate)]",inactive: 0
11,COc1ccccc1N1CCNCC1 [1-(2-Methoxyphenyl)piperazine hydrochloride],inactive: 0
12,FC(F)(F)c1cccc(N2CCNCC2)c1 [TFMPP hydrochloride],inactive: 0
13,CC1CC(Cl)CCC1C(=O)OC(C)(C)C (stereo not drawn) [trimedlure],inactive: 0
14,Cc1nccc2c1[nH]c1cc(O)ccc12 [harmol hydrochloride],inactive: 0
15,CC(C)c1cc2c(c(O)c1O)[C@@]1(C(=O)O)CCCC(C)(C)[C@@H]1CC2 [carnosic acid],inactive: 0
16,"CCCCCCC(C)OC(=O)COc1ccc(Cl)cc1Cl (stereo not drawn) [2,4-dichlorophenoxyacetic acid, isooctyl ester]",inactive: 0
17,Cc1[nH]c2ccccc2c1CN(C)C [2-methyl gramine],inactive: 0
18,CO[C@@H]1C[C@H](O[C@H]2CC[C@]3(C)[C@H]4CC[C@]5(C)[C@@H](C6=CC(=O)OC6)CC[C@]5(O)[C@@H]4CC[C@]3(O)C2)O[C@H](C)[C@H]1O [periplocymarin],inactive: 0
19,CN1C[C@H](CNC(=O)OCc2ccccc2)C[C@@H]2c3cccc4c3c(cn4C)C[C@H]21 [metergoline],inactive: 0
20,Oc1ccc2c3c1O[C@H]1[C@@H](O)CC[C@@]4(O)[C@@H](C2)N(CC2CCC2)CC[C@]314 [nalbuphine hydrochloride],inactive: 0
21,CC(=O)O[C@@H]1CC2C(C)(C)[C@H](O)C=C[C@]2(C)C2CC[C@]3(C)C(=CC(=O)O[C@H]3c3ccoc3)[C@@]21C (stereo partly drawn) [3-alpha-hydroxydeoxygedinin],inactive: 0
22,O=C(O)CC[N+](=O)[O-] [bovinocidin (3-nitropropionic acid)],inactive: 0
23,C/C=C/c1ccc2c(c1)OCO2 [isosafrole],inactive: 0

row,Structure (SMILES),phenotypic hit
1,CN1CCc2cc3c(cc2[C@H]1[C@@H]1OC(=O)c2c1ccc1c2OCO1)OCO3 [bicuculline (+)],inactive: 0
2,CC1C=CC=CCCC=CC=CC=CC=CC(OC2OC(C)C(O)C(N)C2O)CC2OC(O)(CC(O)C(O)CCC(O)CC(O)CC(O)CC(=O)OC(C)C(C)C1O)CC(O)C2C(=O)O (stereo not drawn) [nystatin],inactive: 0
3,CC(=O)O[C@H]1CC[C@@]2(C)[C@H](CC[C@@H]3[C@@H]2CC[C@]2(C)[C@@H](C4=CC(=O)OC4)[C@@H](OC(C)=O)C[C@]32O)C1 [gitoxigenin diacetate],inactive: 0
4,N#C[C@H](O[C@@H]1O[C@H](CO[C@@H]2O[C@H](CO)[C@@H](O)[C@H](O)[C@H]2O)[C@@H](O)[C@H](O)[C@H]1O)c1ccccc1 [amygdalin],inactive: 0
5,COc1cc2c(c(OC)c1OC)-c1ccc(OC)c(=O)cc1[C@@H](NC(C)=O)CC2 [colchicine],active: 1
6,C[C@]12CC[C@H](O)CC1=CC[C@@H]1[C@@H]2CC[C@]2(C)C(=O)CC[C@@H]12 [dehydroepiandrosterone],inactive: 0
7,CC(C)Nc1nc(Cl)nc(NC(C)C)n1 [propazine],inactive: 0
8,N#Cc1c(Cl)c(Cl)c(Cl)c(C#N)c1Cl [tetrachloroisophthalonitrile],inactive: 0
9,O=S1OCC2C(CO1)C1(Cl)C(Cl)=C(Cl)C2(Cl)C1(Cl)Cl (stereo not drawn) [endosulfan],inactive: 0
10,"CCCCSP(=O)(SCCCC)SCCCC [s,s,s,-tributylphosphorotrithioate]",inactive: 0
11,CC[N+]1(C)CCCC(OC(=O)C(O)(c2ccccc2)c2ccccc2)C1 (stereo not drawn) [pipenzolate bromide],inactive: 0
12,CC1=C2C(=CO[C@H](C)[C@H]2C)C(O)=C(C(=O)O)C1=O [citrinin],inactive: 0
13,COc1cc2c(cc1OC)[C@@H]1C(=O)c3ccc4c(c3O[C@@H]1CO2)CC(C(C)C)O4 (stereo partly drawn) [dihydrorotenone],active: 1
14,CCC1(C2=NCCN2)Cc2ccccc2O1 (stereo not drawn) [efaroxan],inactive: 0
15,CC[C@@H](CO)NC(=O)[C@@H]1C=C2c3cccc4[nH]cc(c34)C[C@H]2N(C)C1 [methylergonovine maleate],inactive: 0
16,CCCCOC(=O)c1ccccc1C(=O)OCCCC [dibutyl phthalate],inactive: 0
17,O=C(O)c1nn(Cc2ccc(Cl)cc2Cl)c2ccccc12 [lonidamine],inactive: 0
18,C[C@@H]1C[C@@H]([C@H](O)CC2CC(=O)NC(=O)C2)C(=O)[C@@H](C)C1 [cycloheximide],inactive: 0
19,COc1cc2c(cc1O)CCN[C@@H]2C [salsoline],inactive: 0
20,CC(=O)[O-].CC(=O)[O-].[Cd+2] [cadmium acetate],inactive: 0
21,c1cncc([C@@H]2CCCCN2)c1 [anabasine hydrochloride],inactive: 0
22,CC(C)(C#N)O[C@@H]1O[C@H](CO)[C@@H](O)[C@H](O)[C@H]1O [linamarin],inactive: 0
